According to the supplement of paper PMC3334620:
Over roughly 33,000 sequences, “E-score (-0.5 to 0.5)” has its median near -0.053; the highest 2% begin near 0.37. Some of the results follow.

target: Hap1 (UniProt P0CE41); assay: PBM E-score (8-mer binding enrichment) (E-score (-0.5 to 0.5)); higher = stronger / more preferred TF binding; most listed sequences are background and not binding sites; conditions: protein concentration: 200 nM; construct: GST-DNA-binding domain
How it was run: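 Universal all-10-mer Agilent arrays, fresh or stripped once, were converted to double-stranded form by primer extension. GST-tagged yeast transcription factors from PURExpress in vitro transcription/translation, full-length or DNA-binding domain only, were applied at about 100-200 nM and detected with fluorescent anti-GST. After masliner normalisation, the Universal PBM Analysis Suite scored each ungapped eight-base word together with its reverse complement by E-score.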

UniProt P0CE41, sequence (P0CE41 whole entry, the tested form may be a part): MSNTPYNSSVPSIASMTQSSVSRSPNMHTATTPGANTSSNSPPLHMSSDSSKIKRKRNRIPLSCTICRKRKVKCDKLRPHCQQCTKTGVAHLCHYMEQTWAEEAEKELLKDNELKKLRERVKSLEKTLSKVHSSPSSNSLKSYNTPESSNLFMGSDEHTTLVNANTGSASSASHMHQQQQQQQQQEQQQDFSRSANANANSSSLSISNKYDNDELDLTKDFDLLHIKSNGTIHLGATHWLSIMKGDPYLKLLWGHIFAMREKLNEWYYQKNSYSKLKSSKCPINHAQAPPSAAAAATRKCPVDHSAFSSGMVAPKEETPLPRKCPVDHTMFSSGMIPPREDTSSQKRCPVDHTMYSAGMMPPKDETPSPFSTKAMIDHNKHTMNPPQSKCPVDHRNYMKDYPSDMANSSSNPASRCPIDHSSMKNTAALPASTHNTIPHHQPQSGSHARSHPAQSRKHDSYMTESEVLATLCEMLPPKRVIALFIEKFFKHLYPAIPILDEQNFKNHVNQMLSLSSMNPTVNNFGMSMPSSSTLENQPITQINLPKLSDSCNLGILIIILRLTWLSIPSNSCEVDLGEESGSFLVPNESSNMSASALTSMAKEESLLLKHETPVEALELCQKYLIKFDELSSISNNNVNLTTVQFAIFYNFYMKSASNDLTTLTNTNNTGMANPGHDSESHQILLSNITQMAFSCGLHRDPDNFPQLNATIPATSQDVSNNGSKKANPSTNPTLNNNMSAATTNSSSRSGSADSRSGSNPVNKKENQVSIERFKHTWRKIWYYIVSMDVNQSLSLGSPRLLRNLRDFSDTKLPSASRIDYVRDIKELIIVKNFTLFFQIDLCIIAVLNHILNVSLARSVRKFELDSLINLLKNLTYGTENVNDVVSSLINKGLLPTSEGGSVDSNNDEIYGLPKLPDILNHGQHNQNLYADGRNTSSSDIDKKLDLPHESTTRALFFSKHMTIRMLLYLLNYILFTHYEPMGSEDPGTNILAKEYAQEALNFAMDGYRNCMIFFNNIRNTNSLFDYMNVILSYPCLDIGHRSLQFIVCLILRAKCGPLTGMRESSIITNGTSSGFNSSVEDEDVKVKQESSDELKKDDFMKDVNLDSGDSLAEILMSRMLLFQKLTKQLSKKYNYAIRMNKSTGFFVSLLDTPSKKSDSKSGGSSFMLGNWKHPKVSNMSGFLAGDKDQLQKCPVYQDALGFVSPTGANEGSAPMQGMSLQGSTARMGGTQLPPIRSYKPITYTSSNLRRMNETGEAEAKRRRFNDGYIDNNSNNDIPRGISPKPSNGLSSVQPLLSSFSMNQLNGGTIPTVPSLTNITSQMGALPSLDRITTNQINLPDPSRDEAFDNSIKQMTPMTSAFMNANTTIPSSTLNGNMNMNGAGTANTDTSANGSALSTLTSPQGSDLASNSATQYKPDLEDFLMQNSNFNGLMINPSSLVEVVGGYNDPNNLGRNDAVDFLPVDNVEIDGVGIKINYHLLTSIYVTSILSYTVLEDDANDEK

Row | Sequence | PBM E-score
1 | CTTACATA | -0.153
2 | ACGAAGGG | -0.224
3 | TACTTTCA | -0.0123
4 | CCGTCACA | 0.152
5 | AACCTATC | -0.00501
6 | AAAGCTCT | 0.0172
7 | CTTGGCTC | -0.069
8 | AGCGGAGG | 0.158
9 | AACATCAC | -0.179
10 | GGAATCGA | 0.0799
11 | GTATCACA | -0.111
12 | TTACAGAA | -0.277
13 | ATACACAC | -0.235
14 | AGTCGTGG | -0.137
15 | GAACAAAC | 0.114
16 | CAAAGGGA | -0.382
17 | TGCGTTAA | -0.0556
18 | ACGGCGGA | 0.273
19 | CCGGGCCC | 0.369
20 | AGTACCAA | 0.0324
21 | AGCACGTC | -0.0296
22 | CACGGTTA | 0.145
23 | CCATAGAA | -0.186
24 | CAAATTCC | 0.199
25 | AGCCGATA | 0.427

Row | Sequence | PBM E-score
26 | GGTCTGAA | -0.0614
27 | CTTGACTC | -0.17
28 | GCTGTGGA | 0.0167
29 | ACAGACGG | -0.117
30 | AAATGGCC | 0.135
31 | ACTTACGG | 0.293
32 | ATGAGGCC | -0.0558
33 | AGGCTTCC | -0.101
34 | CCCGTGAA | 0.135
35 | TTGGTAAA | -0.105
36 | GAATCGCC | 0.0852
37 | CGGATGTA | 0.427
38 | AGGAGGCA | -0.0609
39 | GTAGAAAA | -0.0902
40 | TGATCTAA | -0.172
41 | ATCAACGA | 0.0514
42 | CAGGACAC | -0.117
43 | TATAATCA | 0.0723
44 | AACAACCG | 0.21
45 | AAATATAT | 0.0607
46 | TGCTGACA | -0.258
47 | CAAGAATC | 0.15
48 | CGCAAAAA | 0.0563
49 | GCCAAGTA | -0.218
50 | CGCTACTA | 0.163

Row | Sequence | PBM E-score
51 | ACATTGCG | -0.0133
52 | AACACCCA | -0.186
53 | GCGCTGTA | -0.0992
54 | GCACGAAA | -0.0143
55 | ATTCGTGA | -0.232
56 | ATAGAGAT | -0.194
57 | GAGTGCCA | -0.165
58 | GCAGCCGA | 0.2
59 | GACAATGA | -0.102
60 | ATCATATC | 0.0983
61 | AAATGTAT | 0.105
62 | CAAGCCGA | 0.24
63 | GGTCTTCA | -0.16
64 | AACATTAT | -0.0948
65 | CAGATGTA | -0.198
66 | AAGCACAG | -0.0954
67 | AAAGCAAC | -0.00246
68 | AACAGTCG | -0.043
69 | GGGGATAA | 0.343
70 | CCCTTCGC | -0.074
71 | ACTCCGGG | 0.39
72 | TCTAGCCA | -0.0919
73 | ACAGTATG | -0.135
74 | AGTCCACA | -0.0896
75 | AGCGCCTC | -0.0565

Row | Sequence | PBM E-score
76 | CACTTCCA | -0.0539
77 | CGGGTTCA | 0.246
78 | CATATAAC | 0.00972
79 | ACCCCACT | -0.103
80 | AATTACGC | -0.159
81 | CTGACGGC | 0.0958
82 | AGGCAAAA | -0.0573
83 | ATCACAGA | -0.154
84 | AGCCAGAT | 0.00391
85 | GGAACTAA | 0.337
86 | ACCGAGAG | 0.299
87 | AACGGACC | 0.327
88 | CCGAAGAG | 0.308
89 | GGGCGTGA | 0.0442
90 | GCCGCTTA | 0.073
91 | TATACAAA | -0.0771
92 | GTCGACAA | -0.0854
93 | AGCTGTCG | -0.0205
94 | CCAATGAG | -0.0685
95 | ACAAGTTC | -0.079
96 | ACCCCCAT | -0.213
97 | ATATGTCC | 0.344
98 | CTTCCTAA | -0.117
99 | CCGCACTA | 0.154
100 | CGTGGGAG | -0.114

Row | Sequence | PBM E-score
101 | CCGAACCC | 0.252
102 | TAATCCAA | -0.151
103 | CCCCAAAC | -0.165
104 | ACTCGAAG | -0.0473
105 | CCCTCTCA | -0.259
106 | CCCGAGTA | 0.31
107 | ACTCTGTC | -0.124
108 | GCCACGAA | -0.00673
109 | ATACTTTC | 0.101
110 | GTCAGCAC | -0.0194
111 | CTTGATAA | -0.119
112 | CGCTCGCA | 0.12
113 | AAAACAGA | -0.119
114 | ATCAGAGA | -0.255
115 | CATTCTAA | -0.102
116 | AATCACTC | -0.186
117 | ACGCACCA | -0.161
118 | TACTATCA | 0.0619
119 | ACCCGCGT | -0.0512
120 | GTTTCGCA | -0.0942
121 | CATATACC | -0.0427
122 | GGGGCAGA | -0.0029
123 | GAAGTGTC | 0.0473
124 | ACTGAGTG | -0.128
125 | AGGTTTCA | 0.0481

Row | Sequence | PBM E-score
126 | ACTAAGCA | -0.283
127 | CCTGCTGC | -0.0734
128 | AGAAGGAA | -0.103
129 | ACGTGTTA | -0.175
130 | AGCGTTAA | 0.00624
131 | AGATAGCA | -0.0252
132 | CTAGGCGA | 0.0215
133 | GACTTTAC | 0.032
134 | ATTGTTCA | -0.228
135 | ACGGGAAC | 0.101
136 | CGATAGTA | 0.189
137 | CTGTTTGC | -0.231
138 | CTACATGA | -0.187
139 | CGATTGAA | 0.0963
140 | AGGCCACG | -0.0133
141 | TAGCGCGA | 0.0659
142 | AGCCGACT | 0.205
143 | TCTGGGCA | 0.204
144 | ACAAACAG | -0.0612
145 | GATAAGAA | 0.0637
146 | TGAAGACA | -0.0595
147 | CGCGCCGA | 0.317
148 | CCCGGCCA | 0.291
149 | CGAGCATC | 0.0291
150 | AGCCGTAC | -0.0618

Row | Sequence | PBM E-score
151 | AGAACGAA | -0.0956
152 | ACGTCCAC | -0.149
153 | GAACCAAA | -0.202
154 | AGCATAAA | -0.0693
155 | AGCAGTCG | 0.0529
156 | AAAGGTAT | 0.09
157 | AGCCACCC | -0.0366
158 | ACCGAAAT | 0.301
159 | CAACTAAG | -0.0658
160 | GCTGCGCC | -0.0725
161 | TTACGTAA | -0.348
162 | AGCCCTTC | -0.241
163 | CAGCTGCA | -0.16
164 | CAAGTCTC | -0.249
165 | AGTAGGAC | -0.181
166 | TGCCACCA | -0.269
167 | ACGTTAAG | -0.0924
168 | ACTGATAG | -0.267
169 | ACCTAAGC | 0.027
170 | CGGATACC | 0.218
171 | AGATCAGA | -0.336
172 | CGTTCTCC | 0.14
173 | GGTGCTCA | -0.0958
174 | CGGACCGC | 0.367
175 | AATCTAGA | -0.214

Row | Sequence | PBM E-score
176 | AGAAGCAC | -0.174
177 | ATCTAACG | 0.153
178 | AGTTGCGA | -0.192
179 | ACCTGCAG | -0.294
180 | AACTGTCA | -0.212
181 | CATCTCGC | -0.0113
182 | AGCTAGTC | -0.0872
183 | CCCTCGAG | -0.215
184 | CCTATGAG | -0.308
185 | AAGACGTC | -0.2
186 | AGATGACG | -0.244
187 | AGAGCGAC | -0.11
188 | AAAAACGC | 0.0756
189 | GAGTTGCC | 0.0867
190 | ACCCTTGA | -0.0126
191 | ACAATGCG | -0.00454
192 | ACAGTGTA | -0.209
193 | TAAAGTGA | -0.11
194 | ACGGTAAA | 0.0275
195 | ACTCCAAG | -0.152
196 | AAGATAAT | -0.0331
197 | CCGCGGTC | 0.276
198 | GCGGTCAA | 0.138
199 | GCCCTAGC | -0.178
200 | CATATTTA | -0.0868

Row | Sequence | PBM E-score
201 | TCACGTCA | -0.186
202 | TTTGCAAA | -0.283
203 | GTCTAGCA | -0.0959
204 | AGTGGGGC | -0.178
205 | GAAGTGCA | -0.208
206 | ATCAACCA | -0.171
207 | CCGAGCCG | 0.397
208 | CCGGTTAC | 0.279
209 | ATGATCAA | -0.25
210 | GGTCCTAC | -0.0458
211 | GCTGATCA | -0.0634
212 | TATTGAAA | -0.0987
213 | ATTCTTGA | -0.0148
214 | ATTGCCCG | 0.223
215 | AGCGCTGA | 0.072
216 | CATGGCAG | -0.0806
217 | CGCATCAG | 0.166
218 | CCGCAACA | 0.252
219 | CCGTTCTA | 0.0806
